Tests used:
human GITR = biological target: T1, human GITR (Homo sapiens, UniProt Q9Y5U5); assay: ELISA binding to GITR extracellular domain, human
T1 construct: coated with rat, mouse, human or cyno GITR extracellular domain (ECD) at 50 ng per well
T1 sequence (Q9Y5U5 26-162 limits assumed): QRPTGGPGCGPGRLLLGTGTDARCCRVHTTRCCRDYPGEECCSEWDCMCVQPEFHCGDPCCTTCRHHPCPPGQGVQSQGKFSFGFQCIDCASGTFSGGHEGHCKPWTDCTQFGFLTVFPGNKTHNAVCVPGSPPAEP
Protocol: (§1) Binding of the MABs to GITR from various species, various alanine mutant constructs or GITR extracellular domain—was assessed using a 384-well plate was coated with rat, mouse, human or cyno GITR extracellular domain (ECD) at 50 ng per well and incubated overnight at 4° C. The plate was blocked with a solution of 1% BSA in PBS for one hour at room temperature and then rinsed three times with PBST. The MAB was then diluted to 0.5 μg/mL or 1 μg/mL in PBS and 20 μL was added to each well. The plate was incubated for 1 hour at room temperature and then washed three times with PBST. Anti-human kappa antibody (Sigma #A7164), anti-human gamma antibody (Jackson Immunoresearch 109-036-098), goat anti-mouse antibody (Jackson ImmunoResearch 115-035-071) conjugated to HRP was diluted 1:5000 in Blocking Buffer (25 μL) and added to each well, or a hrp conjugated HIS antibody (QIAGEN 1014992) diluted 1:1000 in Blocking Buffer was added. The plate was incubated for 1 hour at room temperature, and then washed six times with PBST. 25 μL of SureBlue TMB (KPL 52-00-02) substrate was added to each well and the plate was incubated for about 10 min at room temperature. Plates were read at 650 nm in a spectrophotometer.

[1] = test system: human PBMCs (CD4+ and CD8+ T cells); assay: Bead-conjugated antibody co-stimulation of CFSE labelled human PBMCs; format: cell-based
Protocol: Agonist activity of MABs could also be seen on primary T cells that express endogenous levels of GITR via proliferation and cytokine secretion from primary T cells. MABs were conjugated on to M-280 Tosylactivated beads (Invitrogen #142.04) following the manufacturer's instructions. In some experiments agonist CD3 (OKT3) and CD28 (CD28.2) antibodies were also conjugated to beads. 1×10^5 freshly purified CFSE-labelled human PBMCs were plated in 10 uL of CTL Test media (CTL #CTLW-010) into a 96 well round bottomed tissue culture plate. 100 uL of MAB conjugated beads was then added at a ratio of 1 T cell: 1 beads. Plates were then incubated for 3 days in a 37° C. tissue culture incubator. Levels of secreted cytokines in the media were measured using a MSD multiplex assay according to manufacturer's instructions. Cells were stained with anti-CD4, -CD8a, -CD25, -GITR antibodies and a LIVE/DEAD stain after staining cells were fixed and read on the flow cytometer. Proliferation of each CD4 and CD8 cells was assessed by CFSE staining and counting beads were added prior to the FACS read to allow normalization of the samples.

hGITR = biological target: T2, hGITR (Homo sapiens, UniProt Q9Y5U5); assay: NFκB-Luciferase reporter gene assay, 293 cells with human GITR; format: cell-based; design: expressed in transfected cells; host or cells: HEK-293 (293) cells; settings: antibodies crosslinked
T2 sequence (Q9Y5U5 26-241): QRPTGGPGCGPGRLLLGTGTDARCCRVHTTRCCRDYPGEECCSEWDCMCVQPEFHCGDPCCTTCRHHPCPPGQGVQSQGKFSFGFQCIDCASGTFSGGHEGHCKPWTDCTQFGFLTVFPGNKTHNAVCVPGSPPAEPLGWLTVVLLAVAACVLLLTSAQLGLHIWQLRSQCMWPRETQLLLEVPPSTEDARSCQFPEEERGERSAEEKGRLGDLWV
Protocol: To generate the 293-hGITR-NFκB reporter gene cells line, 293 cells were stably transfected with an NFκB-Luciferase reporter gene and human GITR (or cyno GITR). Activation of the GITR signaling pathway in these cells was determined by measuring the levels of luciferase induced within the cells after a 24 hour incubation with GITR-L or agonistic antibody. To assess the effects of cross-linking Abs, they were incubated with an excess of a F(ab′)2 goat anti-human Fcγ fragment specific antibody or protein A before using in the reporter gene assay.
Functional activity of MABs were tested in an NFkB reporter gene assay for agonist activity. MAB was diluted to 6 μg/mL in PBS and incubated for 30 minutes at room temperature in the presence/absence of a 3 fold excess of F(ab′)2 fragment goat anti-human Fcγ specific crosslinker. Alternatively, MAB was diluted to 6 μg/mL in PBS and incubated for 30 minutes at room temperature in the presence/absence of a 2 fold excess of Protein A. 10 μL of incubated MAB was then added to a 384 well white clear bottomed assay plate. A HEK-293 cell line stably transfected with hGITR and a NFκB reporter gene was diluted to 5×10^5 cells/mL and 20 μL of the cell suspension was added to each well. The plate was incubated for 24 hours in a 37° C. tissue culture incubator. 30 μL of Cell Bright Glo was added to each well and the plate was read for luminescence on the Acquest.

cynomolgus GITR = assay: ELISA binding to GITR extracellular domain, cyno
Protocol: as §1

[2] = beads with anti-CD3, anti-CD28 and MAB, compared to isotype control antibody

binding to human GITR in ELISA (human GITR): binding human | binding to cynomolgus GITR in ELISA (cynomolgus GITR): binding human and cyno GITR
B1: MAB7: MAB4 variant with glycation site KH changed to RH; heavy chain SEQ ID NO:100, light chain SEQ ID NO:66 (antibody)
heavy: EVQLVESGGGLVQSGGSLRLSCAASGFSLSSYGVDWVRQAPGKGLEWVGVIWGGGGTYYASSLMGRFTISRDNSKNTLYLQMNSLRAEDTAVYYCARHAYGHDGGFAMDYWGQGTLVTVSSASTKGPSVFPLAPSSKSTSGGTAALGCLVKDYFPEPVTVSWNSGALTSGVHTFPAVLQSSGLYSLSSVVTVPSSSLGTQTYICNVNHKPSNTKVDKRV[human IgG1 Fc not printed]
light: EIVMTQSPATLSVSPGERATLSCRASESVSSNVAWYQQRPGQAPRLLIYGASNRATGIPARFSGSGSGTDFTLTISRLEPEDFAVYYCGQSYSYPFTFGQGTKLEIKRTVAAPSVFIFPPSDEQLKSGTASVVCLLNNFYPREAKVQWKVDNALQSGNSQESVTEQDSKDSTYSLSSTLTLSKADYEKHKVYACEVTHQGLSSPVTKSFNRGEC
secretion of cytokines (IFNγ, TNFα, IL-10, IL-13) ([1]; beads with anti-CD3, anti-CD28 and MAB): an increase in the secretion of several cytokines | proliferation of CD4+ T cells [1, 2]: induces an increase in proliferation | proliferation of CD8+ T cells [1, 2]: induces an increase in proliferation | dependence of proliferation and IFNγ production on anti-CD3 and anti-CD28 co-stimulation ([1]; co-stimulatory antibodies omitted: no agonist effects): dependent upon the presence of anti-CD3 and anti-CD28 agonistic antibodies | NFκB activity / intracellular signaling (hGITR): induce NFκB activity when crosslinked, at levels similar to GITR ligand

From patent publication US20170306038A1, “COMPOSITIONS AND METHODS OF USE FOR AUGMENTED IMMUNE RESPONSE AND CANCER THERAPY” (priority 2014, published 2017)
